Experimental data as given in the supplement of paper PMC4604168 (melanoma cell lines).
The list shows a part of the results. Many values rest on one well or one pass, so single values are uncertain.
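Note: cell number obtained by counting DAPI-stained nuclei in high-throughput microscope images with image analysis software, screen run in 1,536-well plates.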

These compounds were tested on MeWo (assay: cell count relative to DMSO control; melanoma cells; higher = more viable cells). Conditions: library dose: low library concentration; 72 h.
`Cn1c(=O)n(-c2ccc(C(C)(C)C#N)cc2)c2c3cc(-c4cnc5ccccc5c4)ccc3ncc21` + O=C(O)c1ccc(-c2c[nH]c3ncc(-c4ccccc4)cc23)cc1C1CCCC1 [GSK650394] (first compound 0.004 µM, partner dose 0.16 µM) gave a cell count of 79.3%.
Work on `Cc1cn(-c2cc(NC(=O)c3ccc(C)c(Nc4nccc(-c5cccnc5)n4)c3)cc(C(F)(F)F)c2)cn1` [nilotinib] + Cc1ccc(NC(=O)c2cccc(N(C)C)c2)cc1NC(=O)c1ccc(O)cc1 [ZM336372] (first compound 0.2 µM, partner dose 2 µM) yielded a cell count of 107%.
`Cc1cc(Nc2cc(N3CCN(C)CC3)nc(/C=C/c3ccccc3)n2)n[nH]1` + O=C(O)C(=O)Nc1sc2c(c1C(=O)O)CCNC2 [TCS401] (first compound 0.04 µM, partner dose 1.66667 µM) was tested, and the cell count was 87.7%.
With `CC(C)C[C@H](NC(=O)[C@H](Cc1ccccc1)NC(=O)c1cnccn1)B(O)O` [Bortezomib] + COc1cc(Nc2ncc(F)c(Nc3ccc4c(n3)NC(=O)C(C)(C)O4)n2)cc(OC)c1OC [Tamatinib] (first compound 0.001 µM, partner dose 0.4 µM) the cell count was 86.7%.
`Cc1cc(Nc2cc(N3CCN(C)CC3)nc(/C=C/c3ccccc3)n2)n[nH]1` + Cc1cc(N2CCOCC2)cc2[nH]c(-c3c(NC[C@@H](O)c4cccc(Cl)c4)cc[nH]c3=O)nc12 [BMS536924] (first compound 0.04 µM, partner dose 0.2 µM) was tested, and the cell count was 89.7%.
With `Cc1cn(-c2cc(NC(=O)c3ccc(C)c(Nc4nccc(-c5cccnc5)n4)c3)cc(C(F)(F)F)c2)cn1` [nilotinib] + COc1cc2ncnc(Nc3ccc(Oc4ccccc4)cc3)c2cc1OC [SrcI1] (first compound 0.2 µM, partner dose 2 µM) the cell count was 100%.
`COc1ccc(C2=N[C@@H](c3ccc(Cl)cc3)[C@@H](c3ccc(Cl)cc3)N2C(=O)N2CCNC(=O)C2)c(OC(C)C)c1` [Nutlin-3] + CN(NC(=O)CC(=O)NN(C)C(=S)c1ccccc1)C(=S)c1ccccc1 [STA4783] (first compound 0.1 µM, partner dose 0.006 µM) gave a cell count of 82.3%.
`Cc1cc(Nc2cc(N3CCN(C)CC3)nc(/C=C/c3ccccc3)n2)n[nH]1` + COc1ccc(-c2ccc3c(N4CCOCC4)nc(N4C[C@@H](C)O[C@@H](C)C4)nc3n2)cc1CO [KU0063794] (first compound 0.04 µM, partner dose 0.02 µM) was tested, and the cell count was 85.3%.
Compound `Cn1c(=O)n(-c2ccc(C(C)(C)C#N)cc2)c2c3cc(-c4cnc5ccccc5c4)ccc3ncc21` + C[C@@H]1CCN(C(=O)CC#N)C[C@@H]1N(C)c1ncnc2[nH]ccc12 [CP690550] (first compound 0.004 µM, partner dose 1 µM) has a cell count of 90.3%.
With `Cc1cn(-c2cc(NC(=O)c3ccc(C)c(Nc4nccc(-c5cccnc5)n4)c3)cc(C(F)(F)F)c2)cn1` [nilotinib] + C[C@@H]1CCN(C(=O)CC#N)C[C@@H]1N(C)c1ncnc2[nH]ccc12 [CP690550] (first compound 0.2 µM, partner dose 1 µM) the cell count was 97.8%.
`Cn1c(=O)n(-c2ccc(C(C)(C)C#N)cc2)c2c3cc(-c4cnc5ccccc5c4)ccc3ncc21` + NC(=O)Nc1cc(-c2cccc(F)c2)sc1C(=O)N[C@H]1CCCNC1 [AZD7762] (first compound 0.004 µM, partner dose 0.02 µM) showed a cell count of 92.6%.

These compounds were tested on RPMI7951 in the same assay as above. Conditions: library dose: low library concentration; 72 h.
Compound `CC(C)C[C@H](NC(=O)[C@H](Cc1ccccc1)NC(=O)c1cnccn1)B(O)O` [Bortezomib] + O=c1cc(-c2cccc3c2Sc2ccccc2S3)oc(N2CCOCC2)c1 [KU55933] (first compound 0.001 µM, partner dose 1 µM) has a cell count of 70.9%.
With `COc1ccc(C2=N[C@@H](c3ccc(Cl)cc3)[C@@H](c3ccc(Cl)cc3)N2C(=O)N2CCNC(=O)C2)c(OC(C)C)c1` [Nutlin-3] + CN(C)S(=O)(=O)c1ccc2c(c1)/C(=C/c1cc3c([nH]1)CCCC3)C(=O)N2 [SU6656] (first compound 0.1 µM, partner dose 0.4 µM) the cell count was 122%.
`Cc1cc(Nc2cc(N3CCN(C)CC3)nc(/C=C/c3ccccc3)n2)n[nH]1` + CCc1ccc(CCOc2ccc(CC3SC(=O)NC3=O)cc2)nc1 [pioglitazone] (first compound 0.04 µM, partner dose 2 µM) was tested, and the cell count was 91.3%.
`Cn1c(=O)n(-c2ccc(C(C)(C)C#N)cc2)c2c3cc(-c4cnc5ccccc5c4)ccc3ncc21` + O=C(Nc1ccccc1)c1cc([N+](=O)[O-])ccc1Cl [GW9662] (first compound 0.004 µM, partner dose 2 µM) showed a cell count of 124%.
`Cc1cn(-c2cc(NC(=O)c3ccc(C)c(Nc4nccc(-c5cccnc5)n4)c3)cc(C(F)(F)F)c2)cn1` [nilotinib] + COc1cc2c(Oc3ccc4[nH]c(C)cc4c3F)ncnc2cc1OCCCN1CCCC1 [cediranib] (first compound 0.2 µM, partner dose 0.4 µM) was tested, and the cell count was 94.2%.
In the case of `Cc1cc(Nc2cc(N3CCN(C)CC3)nc(/C=C/c3ccccc3)n2)n[nH]1` + OCCn1cc(-c2cnc3nnn(Cc4ccc5ncccc5c4)c3n2)cn1 [PF04217903] (first compound 0.04 µM, partner dose 1 µM), the cell count was 81.9%.
In the case of `CC(C)C[C@H](NC(=O)[C@H](Cc1ccccc1)NC(=O)c1cnccn1)B(O)O` [Bortezomib] + NCC(=O)Nc1ccc(-n2nc(C(F)(F)F)cc2-c2ccc3c(ccc4ccccc43)c2)cc1 [OSU03012] (first compound 0.001 µM, partner dose 1 µM), the cell count was 106%.
In the case of `Cn1c(=O)n(-c2ccc(C(C)(C)C#N)cc2)c2c3cc(-c4cnc5ccccc5c4)ccc3ncc21` + COc1cc(Nc2ncc(F)c(Nc3ccc4c(n3)NC(=O)C(C)(C)O4)n2)cc(OC)c1OC [Tamatinib] (first compound 0.004 µM, partner dose 0.4 µM), the cell count was 77.7%.
With `COc1ccc(C2=N[C@@H](c3ccc(Cl)cc3)[C@@H](c3ccc(Cl)cc3)N2C(=O)N2CCNC(=O)C2)c(OC(C)C)c1` [Nutlin-3] + CCN(CC)CCCCNc1ncc2cc(-c3cc(OC)cc(OC)c3)c(NC(=O)NC(C)(C)C)nc2n1 [PD173074] (first compound 0.1 µM, partner dose 0.1 µM) the cell count was 105%.
Compound `CC(C)C[C@H](NC(=O)[C@H](Cc1ccccc1)NC(=O)c1cnccn1)B(O)O` [Bortezomib] + CN(C)S(=O)(=O)c1ccc2c(c1)/C(=C/c1cc3c([nH]1)CCCC3)C(=O)N2 [SU6656] (first compound 0.001 µM, partner dose 0.4 µM) has a cell count of 85.6%.
`Cc1cn(-c2cc(NC(=O)c3ccc(C)c(Nc4nccc(-c5cccnc5)n4)c3)cc(C(F)(F)F)c2)cn1` [nilotinib] + COc1ccc(COc2ccc(Cc3cnc(N)nc3N)cc2OC)cc1 [GW2580] (first compound 0.2 µM, partner dose 1 µM) showed a cell count of 98.8%.
`CC(C)C[C@H](NC(=O)[C@H](Cc1ccccc1)NC(=O)c1cnccn1)B(O)O` [Bortezomib] + Oc1cc(-c2nc(-c3ccccc3)[nH]c2-c2ccncc2)ccc1Cl [L779450] (first compound 0.001 µM, partner dose 0.2 µM) was tested, and the cell count was 85.8%.
Work on `CC(C)C[C@H](NC(=O)[C@H](Cc1ccccc1)NC(=O)c1cnccn1)B(O)O` [Bortezomib] + Cc1cc(N2CCOCC2)cc2[nH]c(-c3c(NC[C@@H](O)c4cccc(Cl)c4)cc[nH]c3=O)nc12 [BMS536924] (first compound 0.001 µM, partner dose 0.2 µM) yielded a cell count of 106%.
In the case of `Cn1c(=O)n(-c2ccc(C(C)(C)C#N)cc2)c2c3cc(-c4cnc5ccccc5c4)ccc3ncc21` + COc1cc2c(Oc3ccc4[nH]c(C)cc4c3F)ncnc2cc1OCCCN1CCCC1 [cediranib] (first compound 0.004 µM, partner dose 0.4 µM), the cell count was 86.3%.
`Cc1cn(-c2cc(NC(=O)c3ccc(C)c(Nc4nccc(-c5cccnc5)n4)c3)cc(C(F)(F)F)c2)cn1` [nilotinib] + O=C1NC(=O)/C(=C/c2ccc(-c3ccc(F)cc3O)o2)S1 [AS252424] (first compound 0.2 µM, partner dose 1 µM) was tested, and the cell count was 83.6%.
Compound `CC(C)C[C@H](NC(=O)[C@H](Cc1ccccc1)NC(=O)c1cnccn1)B(O)O` [Bortezomib] + Cn1cc(/C=C2\C(=O)Nc3cccnc32)c2ccccc21 [GW441756] (first compound 0.001 µM, partner dose 0.4 µM) has a cell count of 54.8%.
In the case of `Cc1cc(Nc2cc(N3CCN(C)CC3)nc(/C=C/c3ccccc3)n2)n[nH]1` + COc1ccc(COc2ccc(Cc3cnc(N)nc3N)cc2OC)cc1 [GW2580] (first compound 0.04 µM, partner dose 1 µM), the cell count was 86.8%.
Compound `Cc1cn(-c2cc(NC(=O)c3ccc(C)c(Nc4nccc(-c5cccnc5)n4)c3)cc(C(F)(F)F)c2)cn1` [nilotinib] + COc1cc(N2CCC(N3CCN(C)CC3)CC2)ccc1Nc1ncc(Cl)c(Nc2ccccc2S(=O)(=O)C(C)C)n1 [NVP-TAE684] (first compound 0.2 µM, partner dose 0.08 µM) has a cell count of 92%.
Work on `CC(C)C[C@H](NC(=O)[C@H](Cc1ccccc1)NC(=O)c1cnccn1)B(O)O` [Bortezomib] + O=C1NC(=O)/C(=C/c2ccc(-c3ccc(F)cc3O)o2)S1 [AS252424] (first compound 0.001 µM, partner dose 1 µM) yielded a cell count of 74.5%.
